From PubChem BioAssay (EPA / NIEHS)
For some assays here: This list holds what a sample rich in hits left over. Records with an inconclusive call do not appear. This is a selection; strong and weak results do not stand in their true shares. Where a structure was tested more than once in an assay, its records may differ in their call. Calls of active or inactive are those of the source. The calls were made as follows, unless noted: active = hit-call score of the fitted dose curve at least 0.9, where 1 is the maximum; inactive = score below 0.9.

How the values were obtained:
[1] = molecular target: human Retinoid X Receptor beta (RXRb), RXRB (gene 6257) (UniProt P28702); assay: ATG_RXRb_TRANS: Attagene TRANS-FACTORIAL HepG2 Assay for human Retinoid X Receptor beta (RXRb) (AID 2283013; active = hit-call score of the fitted dose curve at least 0.9, where 1 is the maximum)
How it was run: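 Transfect HepG2 with GAL4-UAS multi-reporter constructs (chimeric NR-Gal4, TRANS format); dose compound 24 h; isolate RNA, RT-PCR, FAM primer extension, HpaI digest; quantify by capillary electrophoresis; positive direction vs DMSO.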

[2] = read-out: Transforming growth factor beta 1 (TGFb1), TGFB1 (gene 7040); assay: BSK_KF3CT_TGFb1: BioMAP Diversity Plus: KF3CT Assay for Transforming growth factor beta 1 (TGFb1) Biomarker Activity (AID 2283072); details: actives raise or lower the signal; primary human keratinocytes with fibroblasts
How it was run: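 Primary human skin cells (keratinocytes, foreskin fibroblasts) were co-cultured, exposed to test chemical and sampled at 24 h. TGF-b1 levels were measured by ELISA and fitted bidirectionally relative to DMSO.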

[3] = read-out: Vascular cell adhesion molecule 1 (VCAM1), VCAM1 (gene 7412); assay: BSK_LPS_VCAM1: BioMAP Diversity Plus: LPS Assay for Vascular cell adhesion molecule 1 (VCAM1) Biomarker Activity (AID 2283086); details: actives raise or lower the signal; primary human HUVEC with PBMC
How it was run: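 HUVEC + PBMC co-culture, LPS system; compound 24 h; VCAM-1 by ELISA; bidirectional fit vs DMSO control; parallel SRB (0.1%, TCA-fixed, 560 nm) for cytotoxicity.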

[4] = molecular target: rat Androgen Receptor (AR), Ar (gene 24208) (UniProt P15207); assay: NVS_NR_rAR: NovaScreen (NVS) Nuclear Receptor Binding Assay for rat Androgen Receptor (AR) (AID 2283366; active = hit-call score of the fitted dose curve at least 0.9, where 1 is the maximum)
How it was run: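 Cell-free radioligand binding on extracts of prostate from testosterone-pretreated rats, read by filter-based scintillation counting 18 h after dosing. Loss of bound signal fitted positively versus DMSO; primary screen in duplicate at 25 uM, actives followed up in concentration series.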

[5] = read-out: Insulin-like growth factor-binding protein 1 (IGFBP1), IGFBP1 (gene 3484); assay: LTEA_HepaRG_IGFBP1: Life Technologies and Expression Analysis (LTEA) Assay for Insulin-like growth factor-binding protein 1 (IGFBP1) using HepaRG (AID 2283508); details: actives raise or lower the signal; mRNA level, 48 h
How it was run: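 HepaRG, 48 h, 8 conc. (max 100 uM, half-log), duplicates, 0.5% DMSO. Readout: TaqMan qRT-PCR, ACTB/GAPDH/POLR2A normalisation. Fit: bidirectional vs DMSO.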

[6] = read-out: Pselectin, SELP (gene 6403); assay: BSK_4H_Pselectin: BioMAP Diversity Plus: 4H Assay for Pselectin Biomarker Activity (AID 2283026); details: actives raise or lower the signal; primary human endothelial cells (HUVEC)
How it was run: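 ELISA read-out of P-selectin on human umbilical vein endothelium after 24 h of dosing. Values derive from bidirectional fitting relative to DMSO. Parallel SRB protein staining flagged overt cytotoxicity.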

[7] = BSK_BE3C_SRB: Viability Assessment in the BioMAP Diversity Plus: BE3C Assay (AID 2283028); details: primary human bronchial epithelial cells;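 as to AC50: fitted both ways so AC50 may mark signal gain or loss versus DMSO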
How it was run: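 SRB total-protein staining (0.1%, after TCA fixation) of chemically dosed human bronchial epithelial primary cells at 24 h; DMSO serves as the negative control for bidirectional curve fitting.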

[8] = BSK_hDFCGF_Proliferation: Cell Proliferation Assessment in the BioMAP Diversity Plus: hDFCGF Assay (AID 2283059); details: primary human foreskin fibroblasts;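 also: curves fitted for both rise and fall of signal versus DMSO baseline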
How it was run: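 This proliferation readout used SRB total-protein staining of human foreskin fibroblasts […], normalized to DMSO with bidirectional curve fitting.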

[9] = CEETOX_H295R_OHPREG: CeeTox H295R High-throughput Steroidogenesis Assay for OH-Pregnenolone (OHPREG) (AID 2283434); details: actives raise or lower the signal
[10] = read-out: Vascular endothelial growth factor receptor 2 (Homo sapiens) (UniProt P35968); assay: BSK_4H_VEGFRII: BioMAP Diversity Plus: 4H Assay for Vascular endothelial growth factor receptor 2 (VEGFR2) Biomarker Activity (AID 2283031); details: actives raise or lower the signal; primary human endothelial cells (HUVEC);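 as to AC50: cell-surface VEGFR2 protein level quantified by ELISA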
How it was run: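 In this multiplexed HUVEC system, biomarker ELISA was performed after 24 h chemical exposure. Parallel SRB staining (TCA fixation, 560 nm) tracked cytotoxicity; DMSO served as baseline.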

[11] = Tanguay_ZF_120hpf_JAW_legacy: (Legacy) Oregon State University Tanguay Lab 120 Hour Post-fertilization zebrafish Assay for Jaw Malformation (AID 2283638; active = hit-call score of the fitted dose curve at least 0.9, where 1 is the maximum)
How it was run: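 Wild-type 5D embryos, chorion removed at 4 hpf, dosed singly from 6 hpf; 28C static, sealed, foil-covered, to 120 hpf. Endpoint: jaw defect yes/no (brightfield); mortality excludes scoring.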

[12] = IUF_NPC1_viability_72hr: Viability Assessment at 72 hours in the Leibniz Research Institute for Environmental Medicine (IUF) Neural Progenitor Cell Proliferation Assay (NPC1) (AID 2284209)
How it was run: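 hNPC spheres, 1/well, EGF+FGF medium, 37C/5% CO2; dosed day 0, 72 h, no re-dosing. Resazurin reduction (alamar blue) fluorescence; DMSO = negative control/baseline; growth-factor-free wells as positive control.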

[13] = BSK_4H_SRB: Viability Assessment in the BioMAP Diversity Plus: 4H Assay (AID 2283027); details: primary human endothelial cells (HUVEC);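 also: cells exposed to compound for 24 h before staining; curves fitted both ways versus DMSO so AC50 may be loss or gain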
How it was run: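 Human umbilical vein endothelial cells, 24 h after chemical dosing; total protein measured by 0.1% sulforhodamine B staining after 10% TCA fixation, read at 560 nm. Bidirectional fitting against DMSO.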

[14] = read-out: C-C motif chemokine 2 (Homo sapiens) (UniProt P13500); assay: BSK_KF3CT_MCP1: BioMAP Diversity Plus: KF3CT Assay for Monocyte Chemoattractant Protein 1 (MCP1/CCL2) Biomarker Activity (AID 2283073); details: actives raise or lower the signal; primary human keratinocytes with fibroblasts
How it was run: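 Biomarker MCP-1 is measured by ELISA in primary human keratinocytes co-cultured with foreskin fibroblasts, 24 h after chemical treatment; DMSO serves as the negative control and activity baseline.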

[15] = molecular target: Estrogen receptor beta (Homo sapiens) (UniProt Q92731); assay: OT_ER_ERbERb_0480: Odyssey Thera (OT) 8-hour HEK293T Protein-Complementation Assay for Estrogen Receptor-beta/-beta Homodimer (AID 2283357; active = hit-call score of the fitted dose curve at least 0.9, where 1 is the maximum;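 also: active means signal gain over DMSO baseline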)
How it was run: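 Fluorescence intensity, nuclear for agonists and nuclear plus cytoplasmic for antagonists, was quantified by laser scanning cytometry versus vehicle after 8 h treatment. The cells were HEK293T stably carrying ER beta LBD fragment-complementation partners.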

[16] = molecular target: Estrogen receptor beta (Homo sapiens) (UniProt Q92731); assay: OT_ER_ERbERb_1440: Odyssey Thera (OT) 24-hour HEK293T Protein-Complementation Assay for Estrogen Receptor-beta/-beta Homodimer (AID 2283380; active = hit-call score of the fitted dose curve at least 0.9, where 1 is the maximum;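 also: scored as signal increase over DMSO baseline for both agonists and antagonists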)
How it was run: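 HEK293T cells stably expressing ER beta LBD (aa 310-547) homodimer fragment-complementation reporter, dosed 24 h. Cells formaldehyde-fixed, Draq5-stained; gain in nuclear (agonist) or nuclear plus cytoplasmic (antagonist) fluorescence versus DMSO read by laser scanning cytometry.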

[17] = read-out: Interleukin-6 (IL6), IL6 (gene 3569); assay: BSK_CASM3C_IL6: BioMAP Diversity Plus: CASM3C Assay for Interleukin-6 (IL6) Biomarker Activity for (AID 2283040); details: actives raise or lower the signal; primary human coronary artery smooth muscle cells
[18] = CEETOX_H295R_PROG: CeeTox H295R High-throughput Steroidogenesis Assay for Progesterone (PROG) (AID 2283442); details: actives raise or lower the signal;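 also: human H295R adrenal cells primed with 10 µM forskolin before dosing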
How it was run: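 Measured analyte is progesterone secreted by H295R cells at 48 h of chemical treatment, following 10 uM forskolin priming. Quantitation used HPLC-MS/MS against a 7-point standard curve; cytotoxicity was checked by MTT absorbance.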

[19] = read-out: Secreted IgG (sIgG), gene 3500; assay: BSK_BT_sIgG: BioMAP Diversity Plus: BT Assay for Secreted IgG (sIgG) Biomarker Activity (AID 2284226); details: primary human B cells with PBMC
How it was run: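 Read-out: ELISA for secreted IgG after 24 h of chemical exposure in a B cell plus PBMC co-culture. Values reflect upward-direction fitting against DMSO negative controls.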

[20] = read-out: Thrombomodulin, THBD (gene 7056); assay: BSK_3C_Thrombomodulin: BioMAP Diversity Plus: 3C Assay for Thrombomodulin Biomarker Activity (AID 2283029); details: actives raise or lower the signal; primary human endothelial cells (HUVEC)
How it was run: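 Read-out is ELISA of thrombomodulin on human umbilical vein endothelium 24 h after chemical dosing. Gain or loss of signal is scored relative to DMSO. Overt cytotoxicity is checked in parallel cultures by sulforhodamine B staining.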

[21] = read-out: Heat shock 70 kDa protein 1 (HSPA1A), gene 3303; assay: LTEA_HepaRG_HSPA1A: Life Technologies and Expression Analysis (LTEA) Assay for Heat shock 70 kDa protein 1 (HSPA1A) using HepaRG (AID 2283502); details: actives raise or lower the signal; mRNA level, 48 h
How it was run: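 Readout is HSPA1A transcript level by microfluidic qRT-PCR, normalized to three housekeeping genes and analysed for gain or loss of signal relative to 0.5% DMSO. Human HepaRG cultures received test chemicals for 48 h at up to 100 uM.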

## c1ccc(Nc2ccc3ccccc3c2)cc1
[1]
  AC50: active: 10 µM

## CC(C)(C)CC(C)(C)c1ccc(O)cc1
[1]
  AC50: active: 13.3 µM
[2]
  AC50: active: 7.41 µM
[3]
  AC50: active: 11.7 µM
[4]
  AC50: active: 17.1 µM
[5]
  outcome: inactive

## Oc1c(Br)cc(Br)cc1Br
[6]
  outcome: inactive
[7]
  outcome: inactive
[8]
  AC50: active: 31.1 µM
[9]
  outcome: inactive

## CCNc1nc(NC(C)(C)C)nc(SC)n1
[10]
  outcome: inactive

## CCCCSP(=O)(SCCCC)SCCCC
[10]
  outcome: inactive
[11]
  outcome: inactive
[12]
  outcome: inactive

## CCCCOC(=O)COC(=O)c1ccccc1C(=O)OCCCC
[6]
  outcome: inactive

## Oc1ccc(C2(c3ccc(O)cc3)c3ccccc3-c3ccccc32)cc1
[13]
  AC50: active: 12.7 µM

## CCCCCCCCCc1ccc(O)cc1
[10]
  AC50: active: 12.3 µM
[14]
  AC50: active: 15.8 µM
[15]
  AC50: active: 12.8 µM
[16]
  AC50: active: 11.3 µM

## Oc1ccc(-c2ccccc2)cc1
[17]
  AC50: active: 20 µM
[18]
  AC50: active: 32.3 µM
[19]
  outcome: inactive

## COCC(=O)N(c1c(C)cccc1C)[C@H](C)C(=O)OC
[20]
  outcome: inactive

## O=C(O)C(F)(F)C(F)(F)C(F)(F)C(F)(F)C(F)(F)C(F)(F)C(F)(F)C(F)(F)F
[7]
  AC50: active: 47 µM
[21]
  AC50: active: 73.4 µM
